What is called pIC50 is the negative decadic logarithm of the IC50, by convention in mol/L.

pIC50: −log10 of the molar value.

UniProt O14744, sequence (O14744 whole entry): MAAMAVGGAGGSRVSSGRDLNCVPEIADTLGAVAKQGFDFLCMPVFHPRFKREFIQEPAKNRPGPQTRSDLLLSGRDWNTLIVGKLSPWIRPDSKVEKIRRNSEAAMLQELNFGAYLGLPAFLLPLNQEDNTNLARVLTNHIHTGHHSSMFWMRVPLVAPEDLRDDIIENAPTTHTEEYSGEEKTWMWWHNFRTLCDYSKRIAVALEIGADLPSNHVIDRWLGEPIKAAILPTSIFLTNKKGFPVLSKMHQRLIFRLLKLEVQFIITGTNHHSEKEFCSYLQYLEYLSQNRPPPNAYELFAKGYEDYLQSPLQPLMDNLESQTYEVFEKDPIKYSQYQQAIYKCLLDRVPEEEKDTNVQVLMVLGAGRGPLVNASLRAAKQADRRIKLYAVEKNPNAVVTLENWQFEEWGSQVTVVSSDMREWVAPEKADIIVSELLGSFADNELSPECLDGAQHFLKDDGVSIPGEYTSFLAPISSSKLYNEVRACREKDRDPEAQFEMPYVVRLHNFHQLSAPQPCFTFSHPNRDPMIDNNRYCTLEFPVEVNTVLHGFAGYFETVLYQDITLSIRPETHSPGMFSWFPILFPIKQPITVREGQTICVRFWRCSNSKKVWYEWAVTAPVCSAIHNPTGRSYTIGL
UniProt O14744, sequence (Q9BQA1 whole entry partner): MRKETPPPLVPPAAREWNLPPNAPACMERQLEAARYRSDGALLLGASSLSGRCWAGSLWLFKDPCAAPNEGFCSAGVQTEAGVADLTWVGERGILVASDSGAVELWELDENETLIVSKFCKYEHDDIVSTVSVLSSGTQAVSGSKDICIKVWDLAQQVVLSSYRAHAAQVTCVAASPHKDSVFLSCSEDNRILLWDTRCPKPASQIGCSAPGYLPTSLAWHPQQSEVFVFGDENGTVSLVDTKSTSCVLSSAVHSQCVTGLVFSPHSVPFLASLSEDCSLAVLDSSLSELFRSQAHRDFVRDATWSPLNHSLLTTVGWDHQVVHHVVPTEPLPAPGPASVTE

For the experiment, the target named is PRMT5/MEP50 Complex (Homo sapiens (Human), UniProt O14744). As to the kind of experiment: PRMT5 inhibition based on TR-FRET assay. It counts as biochemical. The following applies: 32 nM PRMT5:MEP50, 50 nM Histone-H4 peptide, 1 μM SAM. The text has this: PRMT5 Inhibition Based on TR-FRET Assay:
Protein arginine methyltransferase 5 (PRMT5) is a type II arginine methyltransferase that catalyze mono- and symmetric demethylation on arginine residues of histone or non-histone proteins in presence of S-adenosylmethionine (AdoMet or SAM) a cofactor responsible for donating the methyl group. PRMT5 is reported to be overexpressed in several human cancers. To identify compounds that inhibit the PRMT5 and decrease its activity, a TR-FRET based assay has been established. Time-resolved fluorescence resonance energy transfer (TR-FRET) HTS assays are homogeneous proximity assays where the interaction of two dye-labeled binding partners is detected by the energy transfer between a donor and an acceptor dye and the subsequent light emission by the acceptor dye. PRMT5 catalyzes Histone H4 peptide which is biotin tagged to the Lysine amino acid at carboxyl end, in presence of S-adenosyl-1-methionine (SAM) to methylate the peptide. The antibody specific to mono methylated H4 peptide (H4R3) with Ig conjugate binds to the methylated peptide, indirectly binding to the Europium lanthanide. SureLight Allophycocyanin-Streptavidin binds to the biotin tag of the peptide, therefore accepting the energy transferred from the Europium lanthanide. This energy transfer between Europium to SureLight Allophycocyanin is a direct measure of the activity/inhibition of the PRMT5 enzyme.
Assay buffer: 20 mM BICINE (pH 7.6), 25 mM NaCl, 2 mM DTT, 0.01% Tween-20 and 0.01% BSA.
The compound dilutions were prepared as 7.5% DMSO stock solutions in assay buffer. To 2 μL (7.5×) of test compound, 5 μL of PRMT5 enzyme prepared in assay buffer (Final concentration of 32 nM in 15 μL reaction volume) was added and allowed for 30 minutes pre-incubation time in a white polystyrene 384-well plate at room temperature. […] The plates were then read on Victor-3 with Excitation at 340 nm and Emissions collected at 615 and 665 nm in TR-FRET protocol. […]
On the technique in general: Time-resolved FRET reads energy transfer from a long-lived donor to a nearby acceptor.
As for `Cn1cc(CN2CCN(CC(O)CN3CCc4ccccc4C3)C2=O)ccc1=O` (stereo not drawn) [Example 44, 5-((3-(3-(3,4-Dihydroisoquinolin-2(1H)-yl)-2-hydroxypropyl)-2-oxoimidazolidin-1-yl)methyl)-1-methylpyridin-2(1H)-one], the pIC50 was 6.21.
Compound `NC(=O)c1ccc(CN2CCN(CC(O)CN3CCc4ccccc4C3)C2=O)cc1` (stereo not drawn) [Example 47, 4-((3-(3-(3,4-dihydroisoquinolin-2(1H)-yl)-2-hydroxypropyl)-2-oxoimidazolidin-1-yl)methyl)benzamide] showed a pIC50 of 6.23.
Compound `CNC(=O)c1ccc(CN2CCN(C[C@H](O)CN3CCc4ccccc4C3)C2=O)nc1` [Example 49] showed a negative logarithm of the IC50 (pIC50) of 6.74. Compared with the last compound, the pIC50 is 0.51 log units higher.

Values taken from US11365205B2 (Aurigene Discovery Technologies Limited, priority 2018, dated 2022).
